# Laboratory results as given in the supplement of paper PMC8728848.
# The other results are listed elsewhere or left out.
# What was measured:
# Assay in all cases: glycan array binding signal (z-score within array); higher = stronger binding
# Settings in all cases: glycan notation: IUPAC condensed, linker removed
# [1] = target: GlcNAc(b1-4)Gal(b1-4)GlcNAc
# How it was run: (§1)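 Glycan array binding is given as a within-array Z-score, which can be read as non-binding when negative. The arrays, 3228 of them, came from the Consortium for Functional Glycomics database and were retained only where the protein sequence was available. Z-scores were averaged across arrays of the same protein sequence at different concentrations or buffers and across linkers.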
# GlcNAc(b1-4)GlcNAc = target: GlcNAc(b1-4)GlcNAc
# How it was run: as §1
# [2] = target: GlcNAc(b1-4)GlcNAc(b1-4)GlcNAc
# How it was run: as §1
# [3] = target: GlcNAc(b1-4)GlcNAc(b1-4)GlcNAc(b1-4)GlcNAc(b1-4)GlcNAc
# How it was run: as §1
# [4] = target: GlcNAc(b1-4)GlcNAc(b1-4)GlcNAc(b1-4)GlcNAc(b1-4)GlcNAc(b1-4)GlcNAc
# How it was run: as §1
# [5] = target: GlcNAc(b1-4)[GlcNAc(b1-6)]GalNAc
# How it was run: as §1
# [6] = target: GlcNAc(b1-6)Gal(b1-4)GlcNAc
# How it was run: as §1
# GlcNAc(b1-6)GalNAc = target: GlcNAc(b1-6)GalNAc
# How it was run: as §1
# GlcNAc3Prop(b1-4)GlcNAc = target: GlcNAc3Prop(b1-4)GlcNAc
# How it was run: as §1
# Kdn(a2-3)Gal(b1-3)GlcNAc = target: Kdn(a2-3)Gal(b1-3)GlcNAc
# How it was run: as §1
# Kdn(a2-3)Gal(b1-4)GlcNAc = target: Kdn(a2-3)Gal(b1-4)GlcNAc
# How it was run: as §1
# [7] = target: Man(a1-2)Man(a1-2)Man(a1-3)Man
# How it was run: as §1
# [8] = target: Man(a1-2)Man(a1-2)Man(a1-6)[Man(a1-3)]Man
# How it was run: as §1
# Man(a1-2)Man(a1-3)Man = target: Man(a1-2)Man(a1-3)Man
# How it was run: as §1
# [9] = target: Man(a1-2)Man(a1-3)[Man(a1-2)Man(a1-6)]Man
# How it was run: as §1
# [10] = target: Man(a1-2)Man(a1-3)[Man(a1-2)Man(a1-6)]Man(a1-6)[Man(a1-2)Man(a1-2)Man(a1-3)]Man
# How it was run: as §1
# [11] = target: Man(a1-2)Man(a1-3)[Man(a1-2)Man(a1-6)]Man(a1-6)[Man(a1-2)Man(a1-2)Man(a1-3)]Man(b1-4)GlcNAc(b1-4)GlcNAc
# How it was run: as §1
# [12] = target: Man(a1-2)Man(a1-3)[Man(a1-6)]Man(a1-6)[Man(a1-2)Man(a1-3)]Man(b1-4)GlcNAc(b1-4)GlcNAc
# How it was run: as §1
# [13] = target: Man(a1-2)Man(a1-6)[Man(a1-3)]Man(a1-6)[Man(a1-2)Man(a1-2)Man(a1-3)]Man
# How it was run: as §1
# [14] = target: Man(a1-2)Man(a1-6)[Man(a1-3)]Man(a1-6)[Man(a1-2)Man(a1-2)Man(a1-3)]Man(b1-4)GlcNAc(b1-4)GlcNAc
# How it was run: as §1
# Man(a1-3)[Man(a1-6)]Man = target: Man(a1-3)[Man(a1-6)]Man
# How it was run: as §1
# [15] = target: Man(a1-3)[Man(a1-6)]Man(a1-6)[Man(a1-2)Man(a1-3)]Man(b1-4)GlcNAc(b1-4)GlcNAc
# How it was run: as §1
# [16] = target: Man(a1-3)[Man(a1-6)]Man(a1-6)[Man(a1-3)]Man
# How it was run: as §1
# [17] = target: Man(a1-3)[Man(a1-6)]Man(a1-6)[Man(a1-3)]Man(b1-4)GlcNAc(b1-4)GlcNAc
# How it was run: as §1
# [18] = target: Man(a1-3)[Man(a1-6)]Man(b1-4)GlcNAc(b1-4)GlcNAc
# How it was run: as §1
# Man(a1-6)Man = target: Man(a1-6)Man
# How it was run: as §1
# Man(b1-4)GlcNAc = target: Man(b1-4)GlcNAc
# How it was run: as §1
# Neu5Ac(a2-3)Gal = target: Neu5Ac(a2-3)Gal
# How it was run: as §1
# [19] = target: Neu5Ac(a2-3)Gal(b1-3)GalNAc
# How it was run: as §1
# [20] = target: Neu5Ac(a2-3)Gal(b1-3)GalNAc(b1-3)Gal(a1-4)Gal(b1-4)Glc
# How it was run: as §1
# [21] = target: Neu5Ac(a2-3)Gal(b1-3)GalNAc(b1-3)Gal(b1-4)GlcNAc
# How it was run: as §1
# [22] = target: Neu5Ac(a2-3)Gal(b1-3)GalNAc(b1-4)[Neu5Ac(a2-3)]Gal(b1-4)Glc
# How it was run: as §1
# [23] = target: Neu5Ac(a2-3)Gal(b1-3)GalNAc6S
# How it was run: as §1
# [24] = target: Neu5Ac(a2-3)Gal(b1-3)GlcNAc
# How it was run: as §1
# [25] = target: Neu5Ac(a2-3)Gal(b1-3)GlcNAc(b1-3)Gal(b1-3)GlcNAc
# How it was run: as §1
# [26] = target: Neu5Ac(a2-3)Gal(b1-3)GlcNAc6S
# How it was run: as §1
# [27] = target: Neu5Ac(a2-3)Gal(b1-3)[Fuc(a1-4)]GlcNAc
# How it was run: as §1
# [28] = target: Neu5Ac(a2-3)Gal(b1-3)[Fuc(a1-4)]GlcNAc(b1-3)Gal(b1-4)[Fuc(a1-3)]GlcNAc
# How it was run: as §1
binder,measurement,setting,value
Mannose Binding Protein (Lactobacillus plantarum) (protein) AERSEAALTHVDKDNFLKYFSLNGSATYDAKTGIVTITPNQNNQVGNFSLTSKIDMNKSFTLTGQVNLGSNPNGADGIGFAFHSGNTTDVGNAGGNLGIGGLQDAIGFKLDTWFNSYQAPSSDKNGSEISSTNSNGFGWNGDSANAPYGTFVKTSNQEISTANGSKVQRWWAQDTGESQALSKADIDGNFHDFVVNYDGATRTLTVSYTQASGKVLTWKTTVASSYQAMAMVVSASTGAAKNLQQFKLTSFDFQEAATVNVKYVDTTGHQLAQG,glycan array binding signal (z-score),[1],0.203
same,glycan array binding signal (z-score),GlcNAc(b1-4)GlcNAc,-0.476
same,glycan array binding signal (z-score),[2],0.583
same,glycan array binding signal (z-score),[3],0.985
same,glycan array binding signal (z-score),[4],0.596
same,glycan array binding signal (z-score),[5],0.543
same,glycan array binding signal (z-score),[6],-0.605
same,glycan array binding signal (z-score),GlcNAc(b1-6)GalNAc,-0.949
same,glycan array binding signal (z-score),GlcNAc3Prop(b1-4)GlcNAc,-0.42
same,glycan array binding signal (z-score),Kdn(a2-3)Gal(b1-3)GlcNAc,1.03
same,glycan array binding signal (z-score),Kdn(a2-3)Gal(b1-4)GlcNAc,-0.143
same,glycan array binding signal (z-score),[7],-0.341
same,glycan array binding signal (z-score),[8],0.115
same,glycan array binding signal (z-score),Man(a1-2)Man(a1-3)Man,3.36
same,glycan array binding signal (z-score),[9],0.712
same,glycan array binding signal (z-score),[10],0.457
same,glycan array binding signal (z-score),[11],-0.014
same,glycan array binding signal (z-score),[12],0.227
same,glycan array binding signal (z-score),[13],-0.529
same,glycan array binding signal (z-score),[14],0.436
same,glycan array binding signal (z-score),Man(a1-3)[Man(a1-6)]Man,0.126
same,glycan array binding signal (z-score),[15],-0.04
same,glycan array binding signal (z-score),[16],1.77
same,glycan array binding signal (z-score),[17],-0.264
same,glycan array binding signal (z-score),[18],-0.294
same,glycan array binding signal (z-score),Man(a1-6)Man,-0.501
same,glycan array binding signal (z-score),Man(b1-4)GlcNAc,0.193
same,glycan array binding signal (z-score),Neu5Ac(a2-3)Gal,-0.349
same,glycan array binding signal (z-score),[19],-0.197
same,glycan array binding signal (z-score),[20],1.01
same,glycan array binding signal (z-score),[21],-0.704
same,glycan array binding signal (z-score),[22],0.338
same,glycan array binding signal (z-score),[23],0.283
same,glycan array binding signal (z-score),[24],-0.018
same,glycan array binding signal (z-score),[25],-0.526
same,glycan array binding signal (z-score),[26],-0.327
same,glycan array binding signal (z-score),[27],0.369
same,glycan array binding signal (z-score),[28],-0.477
